In all, about 200,000 compounds went through this assay and about 4,500 (2.2%) were called active. The shares of active, inactive and inconclusive entries below differ from those in the screen. Calls come from the whole dose curve; as a rule, active = well fitted inhibition curve with a large enough effect; inconclusive = small, poorly fitted or top-dose-only effect, or effect the other way; inactive = flat fitted curve, though single readings scatter. Potencies of inconclusive entries are doubtful fits and often do not repeat.
target: Cruzipain (Trypanosoma cruzi) (UniProt P25779); assay: qHTS Assay for Promiscuous and Specific Inhibitors of Cruzain (without detergent); conditions: purified cruzain, Z-FR-AMC fluorescence, no detergent; note: nearly all actives have a fitted effect of over 40% in size;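 for max response, negative = inhibition: plate controls were enzyme without inhibitor for no effect and buffer without enzyme for full effect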
In short: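 Purified cruzain at 1.5 nM, pre-incubated 15 min with compound at room temperature in 100 mM sodium acetate pH 5.5, 5 mM DTT, 0.00005% Triton X-100. Reaction started with 2 uM Z-FR-AMC; AMC fluorescence increase over 60 s gives rate.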
Potency is the fitted concentration of half-maximal effect; tags give direction and shape of the fitted curve.

Chain of UniProt P25779 (P25779 whole entry, looked up): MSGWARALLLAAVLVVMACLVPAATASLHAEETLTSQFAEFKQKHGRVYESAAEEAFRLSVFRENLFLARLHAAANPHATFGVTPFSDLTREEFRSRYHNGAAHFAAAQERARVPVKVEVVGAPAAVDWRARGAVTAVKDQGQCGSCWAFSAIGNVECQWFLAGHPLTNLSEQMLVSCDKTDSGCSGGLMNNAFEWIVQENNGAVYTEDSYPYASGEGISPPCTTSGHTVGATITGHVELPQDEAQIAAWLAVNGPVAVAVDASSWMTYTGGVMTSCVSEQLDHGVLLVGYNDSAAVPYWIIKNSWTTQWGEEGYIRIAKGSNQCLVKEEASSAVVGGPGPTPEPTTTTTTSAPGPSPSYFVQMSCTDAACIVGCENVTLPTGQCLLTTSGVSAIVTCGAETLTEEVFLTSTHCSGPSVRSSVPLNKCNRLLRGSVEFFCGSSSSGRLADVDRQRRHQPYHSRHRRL

Row | Structure (SMILES) | max response, negative = inhibition | Potency
1 | O=C(NCc1ccccc1Cl)c1cc2ccccc2o1 | inactive: -13.6% | 
2 | O=C(Nc1cc(Cl)ccc1Cl)C1CC(=O)N(c2ccc(Br)cc2)C1 (stereo not given) | inactive: 1.49% | 
3 | Cc1csc(N(C)C(=O)CSc2nnc(COc3ccccc3C)o2)n1 |  | inconclusive: 31.6 µM [activator, single point]
4 | Cc1ccc2[nH]c(CSc3nnc(NC(=O)c4ccccc4C)s3)cc(=O)c2c1 | inactive: -8.33% | 
5 | NC[C@@H](Cc1ccccc1)P(=O)(O)O | inactive: -0.0567% | 
6 | CCn1c(SCC(=O)N(Cc2ccccc2)C2CCS(=O)(=O)C2)nc2ccccc2c1=O (stereo not given) |  | inconclusive: 39.8 µM [activator, single point]
7 | COc1ccc(C(=O)Nc2nnc(S(=O)(=O)N(C)c3ccc(Cl)cc3)s2)cc1OC |  | inconclusive: 31.6 µM [activator, single point]
8 | CCOc1ccc(NCc2cccn2-c2nnc(N3CCC(C(=O)NCCc4ccc(OC)c(OC)c4)CC3)s2)cc1 |  | inconclusive: 20 µM [activator, partial curve]
9 | O=C(c1ccc(C(F)(F)F)cc1)N1CCC(=O)N([C@H](COCc2ccc(Cl)cc2)Cc2ccccc2)CC1 |  | inconclusive: 14.1 µM [activator, partial curve, poor fit]
10 | CCOc1ccc(NC(=S)N(CCc2c(C)[nH]c3ccccc23)Cc2cccnc2)cc1 |  | inconclusive: 25.1 µM [inhibitor, single point]
11 | CS(=O)(=O)N1CCc2cc(C(=O)NCCc3ccccc3)ccc21 | inactive: -0.676% | 
12 | CC(=O)NCCNc1ncnc2ccc(-c3c(C)noc3C)cc12 | inactive: 1.39% | 
13 | O=C(NCCCCCCNC(=O)c1ccc(Br)s1)c1ccc(Br)s1 |  | inconclusive: 25.1 µM [inhibitor, single point]
14 | COC(=O)C1=C(C)NC(C)=C(C(=O)OC)C1c1ccc(-c2cc(Cl)ccc2Cl)o1 |  | inconclusive: 20 µM [inhibitor, single point]
15 | Cc1n[nH]c(C)c1S(=O)(=O)N(CC(=O)NC(C)c1ccccc1)c1ccc(C(C)C)cc1 (stereo not given) |  | inconclusive: 39.8 µM [activator, single point]
16 | O=C(Nc1nc(-c2cc3ccccc3o2)cs1)c1ccc(S(=O)(=O)N2CCCC2)cc1 |  | inconclusive: 31.6 µM [inhibitor, single point]
17 | CCCCn1c(CN2CCN(c3ccccc3)CC2)nc2c1c(=O)n(C)c(=O)n2C |  | inconclusive: 31.6 µM [activator, single point]
18 | COc1ccccc1N1CCN(C(=O)c2cc3c(-c4ccc(Cl)cc4)nn(C)c3s2)CC1 |  | inconclusive: 0.0398 µM [inhibitor, full curve, poor fit]
19 | COC(=O)[C@@]1(Cc2ccc(OC)cc2)[C@H]2c3cc(C(=O)N4CCCC4)n(CCc4ccccn4)c3C[C@H]2CN1C(=O)c1ccccc1 |  | inconclusive: 25.1 µM [activator, partial curve]
20 | Cc1cc(NCCCO)n2c(nc3ccccc32)c1C#N |  | active: 31.6 µM

Row | Structure (SMILES) | max response, negative = inhibition | Potency
21 | CCc1cccc(CC)c1NC(=O)c1ccc2c(c1)CCN2S(=O)(=O)c1ccccc1 | inactive: -2.83% | 
22 | Cc1ccc(N2C(=O)[C@@H]3[C@H](C2=O)[C@H]2C=C(C(=O)c4ccccc4)C=CN2[C@@H]3C(=O)c2ccc(Cl)cc2)cc1 |  | active: 3.16 µM
23 | O=C(Nc1ccc(N2CCC(c3ccccc3)C2)c(C(=O)O)c1)c1ccc(Cl)cc1 (stereo not given) | inactive: -3.44% | 
24 | Cc1sc2ncn(CC(=O)NCCCC(=O)N3CCN(c4ccccc4)CC3)c(=O)c2c1C |  | inconclusive: 39.8 µM [activator, single point]
25 | COC(=O)c1cc(C)nc2c1c(=O)nc(SCc1cccc(C)c1)n2C1CC1 | inactive: 3.56% | 
26 | COCCCNC(=O)CCc1nc(-c2ccccc2)no1 |  | inconclusive: 7.94 µM [inhibitor, single point]
27 | COc1ccc(-c2cc3nc(-c4ccc(Br)cc4)cc(C(F)(F)F)n3n2)cc1 | inactive: -5.04% | 
28 | COC(=O)c1ccc(NC(=O)CSc2cn(CC(=O)N3CCCCCC3)c3ccccc23)cc1 |  | inconclusive: 25.1 µM [inhibitor, single point]
29 | COc1ccccc1-c1nc(N2CCOCC2)c2ccccc2n1 | inactive: -6.16% | 
30 | CCCOc1nc2c(c(=O)n(C)c(=O)n2C)n1Cc1cccc2ccccc12 |  | inconclusive: 39.8 µM [activator, single point]
31 | COc1ccc(CNC(=O)C2CCN(C(=O)c3ccc(-n4ccc5ccccc54)s3)CC2)cc1 |  | inconclusive: 25.1 µM [activator, single point]
32 | COc1cc(-c2ccc(NC(=O)c3ccc(C)cc3)c(OC)c2)ccc1NC(=O)c1ccc(C)cc1 | inactive: -29.6% | 
33 | CCc1ccc(CNc2ccc(N3CCN(C(C)=O)CC3)cc2)cc1 |  | inconclusive: 31.6 µM [activator, single point]
34 | N#CC1=C(N)OC2=C(CCc3ccccc32)C1c1ccccc1Cl (stereo not given) |  | inconclusive: 31.6 µM [inhibitor, single point]
35 | CCOC(=O)C(Cc1ccc(NC(=O)/C(=C/c2ccc(OC(C)=O)cc2)NC(C)=O)cc1)N1C(=O)c2ccccc2C1=O (stereo not given) |  | inconclusive: 39.8 µM [activator, single point]
36 | COCCCNC(=O)c1cnn(-c2ccccc2Cl)c1C1CCN(C(=O)OC(C)(C)C)CC1 |  | inconclusive: 6.31 µM [activator, partial curve]
37 | C=CCn1c(SCc2nc3cc(C(=O)OC)ccc3c(=O)[nH]2)nc2sc(CC)cc2c1=O |  | inconclusive: 7.94 µM [activator, single point]
38 | COc1ccc(NC(=O)C(=O)NCCc2ccc(OC)c(OC)c2)c(OC)c1 |  | inconclusive: 39.8 µM [activator, single point]
39 | Cc1nc2sccn2c(=O)c1S(=O)(=O)NCc1ccc(F)cc1 | inactive: 16.7% | 
40 | O=C(c1cc(-c2ccc(Cl)cc2)on1)N(Cc1cccc(F)c1)Cc1ccco1 |  | inconclusive: 39.8 µM [inhibitor, single point]
